Measurements published in the RNAGym collection of RNA variant scans (doi:10.7554/elife.90254).
Read counts are not given, so values of variants with three or more changes are uncertain.

B1: LINE1-mini (parent)
chain: GGCAGAGCUCAACACAGCGUGGCAAAGUGGCUGUGGCUAGACUGCC

Variants of: B1
Test: self-cleavage, relative activity (ratio to wild type); higher = more cleavage; in vitro, sequencing; the parent is a self-cleaving ribozyme

Variant	self-cleavage
GGCAGAGCUCAACACAGCGGGGCAAAGUGGCUGUUGCUAGACUGCU	0.04
GGCAGAGCUCAACACAGCGGGACAAAGUGGCUGUGGAUAGACUGCC	0.01
GGCAGAGCUCAACACAGCGUAGCAGCGUGGCAGUGGCUAGACUGCC	0.04
GGCAGAGCUCAACACAGCGGGGCAAAGUUGGAGUGGCUAGACUGCC	0.06
GGCAGAGCUCAACACAGCGUAGCAGACUGGCUGUGGCUAGACUGCA	0.54
GGCAGAGCUCAACACAGCGUAGCAAAGUUGAUGUGGCUAGACUGCU	0.04
GGCAGAGCUCAACACAGCGUAGCAAAGUGGUUGUGGUUAGACUGCA	0.03
GGCAGAGCUCAACACAGCGGGUCAAAGUAGCUGUGGCUGGACUGCA	0.14
GGCAGAGCUCAACACAGCGUAGAAAAGUGGCUGGGGCUAGACUAGC	0.05
GGCAGAGCUCAACACAGCGUAGCAAAGUUGCUGUGGCAAGACUGCC	1.44
GGCAGAGCUCAACACAGCGUAGCAAAGUGGCUGUGGUUAGACUGUC	0.05
GGCAGAGCUCAACACAGCGUAGCCAAGUGGCUGUGGCUAGAAUGCC	0.06
GGCAGAGCUCAACACAGCGGGUCAAAGUGCCUGUCGCUAGACUGAC	0.06
GGCAGAGCUCAACACAGCGUAGCAAUGUUGCUGUGGCUAGAAUACC	0.02
GGCAGAGCUCAACACAGCGUAGCAAAAUAGCUGUGACUAGACUGCC	0.21
GGCAGAGCUCAACACAGCGGGGCAAAGUGGCACUGGCUUGACUGCC	0.06
GGCAGAGCUCAACACAGCGUAGUAAAGUGGCUGUGGCUAGACUGAC	1.94
GGCAGAGCUCAACACAGCGGGGCAAAGUGGCUGUAGCUAGAAUGCC	0.02
GGCAGAGCUCAACACAGCGUAGCAAGGUAGCUGUGGCUUGACUGCC	0.59
GGCAGAGCUCAACACAGCGUAUCAGAGUGACUGUGGCUAGACGGCC	0.11
GGCAGAGCUCAACACAGCGUAGCAAACUGGCUGCGGCUAGACUGCC	0.1
GGCAGAGCUCAACACAGCGGGGCAAAUUGGCUGUAGCUAGACUGCC	0.05
GGCAGAGCUCAACACAGCGUAGAAAAGUGGCUGUGGAUAGACUGGC	0.05

Variant	self-cleavage
GGCAGAGCUCAACACAGCGUAGCAAAGUGGCUGUGGCUAGUCUGGC	0.22
GGCAGAGCUCAACACAGCGGGGCAAAGUGGCUGUGGCAAGGCUUCC	0.03
GGCAGAGCUCAACACAGCGUAACAAAGUGUCUGUGGCUAGCCUGCC	0.05
GGCAGAGCUCAACACAGCGGGGCAAAGUGGCUAUGGCUAGAAUGCC	0.24
GGCAGAGCUCAACACAGCGGGGCAAAGUGUCUGUGGGUACACUGCC	0.03
GGCAGAGCUCAACACAGCGGGGCAAAGCGGAUGUGACUAGAAUGCC	0
GGCAGAGCUCAACACAGCGGGCCAAAGUGGGUGUGGCUAGUCUGCC	0.06
GGCAGAGCUCAACACAGCGUAGCAAAGUGGGUGUUGCUAGACUGCC	0.06
GGCAGAGCUCAACACAGCGGGGCAAAGUGGCGGUGGCUUGACUGCC	0.07
GGCAGAGCUCAACACAGCGUAGCAAAAUGGCUGUGGUUAGCCUGCC	0.02
GGCAGAGCUCAACACAGCGGGGCAAAGUGACUGUGGCUAGAUUGCC	0.4
GGCAGAGCUCAACACAGCGGGGCAAAGCGGCUGUGGCUACACGGCC	0.02
GGCAGAGCUCAACACAGCGUAGCAAAGUGGUUGUGUCUAGACUGCC	0.52
GGCAGAGCUCAACACAGCGGGCCAAAGUGGCUGAGGCGAGACUGCC	0.04
GGCAGAGCUCAACACAGCGUAGCAAAGUUGCUGUGGCUACACUGCC	0.26
GGCAGAGCUCAACACAGCGUAGCAAAGUUGCUGUGGCUAAACUGCC	0.13
GGCAGAGCUCAACACAGCGUAGCAAAGUGGAUGUGGCGAGACUGCC	0.05
GGCAGAGCUCAACACAGCGGGCCAAAGUGGCUGUGGCCAGACUGCC	0.06
GGCAGAGCUCAACACAGCGGGGCAAAGUGGCUGUUUCUAGACUGCC	0.16
GGCAGAGCUCAACACAGCGUAGCAAAGUUGCUCUGGCGACACUGGC	0.04
GGCAGAGCUCAACACAGCGGGGCAAAGUGUCUGUGACUAGACUGCC	0.42
GGCAGAGCUCAACACAGCGGGGCAAAACAGCUGUGGCUAGACUGCC	0.89
GGCAGAGCUCAACACAGCGGGGCAAAGUGUCUGUGGAUAGACUGCC	0.05

Variant	self-cleavage
GGCAGAGCUCAACACAGCGUAUAAAAGUGGCUGUGGCUAGACUGCC	0.88
GGCAGAGCUCAACACAGCGGGGCAAAGUGGCUGAGGCUAGACUCCC	0.02
GGCAGAGCUCAACACAGCGGGGCAAAGUGGCUGCGGUUAUACUGCC	0.06
GGCAGAGCUCAACACAGCGUAGCAAAUUGUCUGUGGCCAAACUGCC	0.16
GGCAGAGCUCAACACAGCGGGGCAAAGUGGCCGUAGCUAGACUGCC	0.05
GGCAGAGCUCAACACAGCGUAGCAAAGUGGAUGUGGCUAGACCGCC	0.02
GGCAGAGCUCAACACAGCGGGGCAAAGUGUCUGUGGCUAGACAGCC	0.02
GGCAGAGCUCAACACAGCGUACCAAAGUGGAUGUGUCUAGACUGCG	0.05
GGCAGAGCUCAACACAGCGGGGCAAAGUUGCUGUGGCUAGAAUGCC	0.04
GGCAGAGCUCAACACAGCGUAGCAAAGUUGCUGUGGAUGGACUGCC	0.1
GGCAGAGCUCAACACAGCGUAGCACAGUGGCUGUGGCUACACUGCC	0.02
GGCAGAGCUCAACACAGCGUAGAGAAGUUGCUGUGGCUAGACUGCC	0.61
GGCAGAGCUCAACACAGCGGGGCAAAGCGUCUGUGGCUAGACUGCC	2.58
GGCAGAGCUCAACACAGCGGGGCAAAGUGGCUGUGGCUAAACUUCC	0.04
GGCAGAGCUCAACACAGCGUAGCAAAGUCGCUGUAGCUAGACUUCC	0.15
GGCAGAGCUCAACACAGCGUAACAAAGUGGCUGUGCCUAGACUGCC	0.29
GGCAGAGCUCAACACAGCGUAGCAAAGUCGCUGUGUCUAUACUGUC	0.16
GGCAGAGCUCAACACAGCGUAGCAAAGUGGUUAUGGCUAGACUGCC	0.14
GGCAGAGCUCAACACAGCGGGGCAAAGUGGCUGCGGCUAGGCUGCC	0.03
GGCAGAGCUCAACACAGCGGGGCAAAGUGGCUGUGGCUAGACUCCA	0.06
GGCAGAGCUCAACACAGCGGGGCAAAGUCGCUGUGGCUAGAAUGCC	0.17
GGCAGAGCUCAACACAGCGGGUCAAAGUGGCUCUGGCUAGAUUGAC	0.09
GGCAGAGCUCAACACAGCGGGGCAAAGUCGCUGAGGCUAGACUGCC	0.36

Variant	self-cleavage
GGCAGAGCUCAACACAGCGUAGCAUAGUGGCUCUGGUUAGACUGCC	0.04
GGCAGAGCUCAACACAGCGUAGCAAAUUGGAUGUGGCUAGACUGCC	0.21
GGCAGAGCUCAACACAGCGUAGCAAAUUGGGUGUGGCUAGACUGCC	1.13
GGCAGAGCUCAACACAGCGGGGCAAAGUGGCUGCGGCUAGACGGCG	0
GGCAGAGCUCAACACAGCGUAACAAAGUGUCUGUGGCUAGACUGCU	1.74
GGCAGAGCUCAACACAGCGGGCCAAAGCGGCUGGGGCUAGACUUCC	0.03
GGCAGAGCUCAACACAGCGGGGCAAAGUGGCUCUGGCUAGAAUGCG	0.02
GGCAGAGCUCAACACAGCGUAUCAAAGUGACUGUGGGUAGACUGCC	0.04
GGCAGAGCUCAACACAGCGGGUCAAAGUGGCUGGGGCUAAACUGCC	0.03
GGCAGAGCUCAACACAGCGUAGCGAAGUGGUUGUGACUAGACUGCC	0.04
GGCAGAGCUCAACACAGCGGGCUAAAGUGGCUGUGGCUAGAAUGCC	0.35
GGCAGAGCUCAACACAGCGGGCCAAAGUAGCUGCGGCUAGACUGCC	0.1
GGCAGAGCUCAACACAGCGUACCAAAAUGGCUGUGGCGAGGCUGCC	0.01
GGCAGAGCUCAACACAGCGGGGCAAAGUGCAUGUGGCUAAACUGCC	0.04
GGCAGAGCUCAACACAGCGGGGCAAAGUGGCUGAGGCUAGACUGUC	0.01
GGCAGAGCUCAACACAGCGUACCAAAGUGGCUGUGGCUAGAGUGCC	0.03
GGCAGAGCUCAACACAGCGUAACACAGUGCCUGUGGAGAGACUGCC	0.03
GGCAGAGCUCAACACAGCGUAGCUAAGUGGGUGUGGCUAGACUGCC	0.12
GGCAGAGCUCAACACAGCGGGGCAAAGUGGCUGUUGCUACACUGCC	0.02
GGCAGAGCUCAACACAGCGGGGCAAAGUGACUAUGGCUAGACUGCC	0.02
GGCAGAGCUCAACACAGCGGGGCAAAGUGUCUGUGGCUAGCCUGCC	0.02
GGCAGAGCUCAACACAGCGGGGCAAAGUGGCUGUGGCUAGACUACG	0.04
GGCAGAGCUCAACACAGCGUAGCAAAAUGGAUGUGGCUAGACUGCC	2.73

Variant	self-cleavage
GGCAGAGCUCAACACAGCGGGUCAAAGUGCCUGUGGCUAGAAUGCC	0.14
GGCAGAGCUCAACACAGCGGGGCAAAGUGCCUGUGGCUAGACCGCC	0.02
GGCAGAGCUCAACACAGCGUAGCACAGUUGCUGUGGCUAGACUGCC	0.93
GGCAGAGCUCAACACAGCGUAGCAAACCGGCUGUGGCUAGACUGCC	1.14
GGCAGAGCUCAACACAGCGUAUCAAAGUGCCUGUGGUUAGACUGCC	0.2
GGCAGAGCUCAACACAGCGGGGCAAAGAGGCUGUGGCGAGACUGCC	0.02
GGCAGAGCUCAACACAGCGUAGCAAAUUGGCUGUGACUAGACUGCC	0.17
GGCAGAGCUCAACACAGCGGGGCAAAGUAGCUGUGGCUUGAAUGCC	0.11
GGCAGAGCUCAACACAGCGUAUCAAAGGGGCUGUGGCUAAUCUGCC	0.08
GGCAGAGCUCAACACAGCGUAGCAAAGUGGCUGUGGCUAGAUUUCC	0.09
GGCAGAGCUCAACACAGCGUAGCAACAUGUCUGUGGCUAGACUGCC	0.33
GGCAGAGCUCAACACAGCGGGGCAAAGGGGCUGUGGCUUGACUGCC	0.04
GGCAGAGCUCAACACAGCGGGGCAAAGUGGCGGUGGCUAGACUGAC	0.05
GGCAGAGCUCAACACAGCGGGGCAAAGUCGCUGUGGCUAGUCUGGA	0.26
GGCAGAGCUCAACACAGCGUAGCAAAGUGGCUGUGGCUGGACUACC	0.02
GGCAGAGCUCAACACAGCGGGGCAAAAUGGCUGUGGCUAGACUGGC	0.04
GGCAGAGCUCAACACAGCGGGGCAAAGUGACUGUGGCUAGACUGUC	0.71
GGCAGAGCUCAACACAGCGGGGCAAAGGGGCUGUGGCUAGAUUGCC	0.4
GGCAGAGCUCAACACAGCGUAGCAUAGUAGCUGUGGCUAGGGUGCC	0.12
GGCAGAGCUCAACACAGCGUAUCAAACUGCCUGUGGCUAGACUGCC	1.29
